Laboratory results reported in publication PMC9061791.
Changes are numbered by the printed parent chain. These are yes or no findings as the source states them, for the method shown. Binding seen in cells or lysates may run through a third protein. Some results given as binding are weak or reduced against the parent protein; the word gives no strength. For part of these data: Tags and fused reporters may be left off the sequences shown.

The chains behind the UniProt entries cited, without tags or fusion partners. Where a name states a change or a piece, a line headed by the entry shows the natural chain unless it says otherwise.
UniProt Q9H082: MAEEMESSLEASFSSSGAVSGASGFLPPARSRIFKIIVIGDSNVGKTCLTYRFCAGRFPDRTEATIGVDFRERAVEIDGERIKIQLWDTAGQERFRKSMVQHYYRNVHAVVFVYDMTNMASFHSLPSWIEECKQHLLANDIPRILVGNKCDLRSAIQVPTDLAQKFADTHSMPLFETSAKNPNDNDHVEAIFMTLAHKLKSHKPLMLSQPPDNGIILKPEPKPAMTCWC
UniProt Q9UPT5: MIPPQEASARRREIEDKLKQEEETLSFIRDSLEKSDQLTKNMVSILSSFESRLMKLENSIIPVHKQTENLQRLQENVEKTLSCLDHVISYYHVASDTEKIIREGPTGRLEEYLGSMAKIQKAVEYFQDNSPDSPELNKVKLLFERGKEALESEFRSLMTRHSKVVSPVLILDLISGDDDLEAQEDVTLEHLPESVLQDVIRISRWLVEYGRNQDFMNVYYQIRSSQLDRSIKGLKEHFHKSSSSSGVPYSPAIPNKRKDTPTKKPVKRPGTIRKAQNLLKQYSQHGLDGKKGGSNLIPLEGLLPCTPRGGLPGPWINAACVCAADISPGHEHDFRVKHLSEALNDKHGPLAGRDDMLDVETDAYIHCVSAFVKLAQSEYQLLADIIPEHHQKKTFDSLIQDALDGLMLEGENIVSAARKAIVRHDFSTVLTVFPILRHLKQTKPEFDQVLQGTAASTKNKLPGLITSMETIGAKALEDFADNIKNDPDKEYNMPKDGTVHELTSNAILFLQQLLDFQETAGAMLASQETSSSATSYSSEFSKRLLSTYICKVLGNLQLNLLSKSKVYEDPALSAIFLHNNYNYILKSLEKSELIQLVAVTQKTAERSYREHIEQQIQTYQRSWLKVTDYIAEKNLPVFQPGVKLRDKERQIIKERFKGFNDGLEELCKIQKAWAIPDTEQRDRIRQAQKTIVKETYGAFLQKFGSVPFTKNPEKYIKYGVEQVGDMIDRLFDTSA
UniProt Q8TAG9: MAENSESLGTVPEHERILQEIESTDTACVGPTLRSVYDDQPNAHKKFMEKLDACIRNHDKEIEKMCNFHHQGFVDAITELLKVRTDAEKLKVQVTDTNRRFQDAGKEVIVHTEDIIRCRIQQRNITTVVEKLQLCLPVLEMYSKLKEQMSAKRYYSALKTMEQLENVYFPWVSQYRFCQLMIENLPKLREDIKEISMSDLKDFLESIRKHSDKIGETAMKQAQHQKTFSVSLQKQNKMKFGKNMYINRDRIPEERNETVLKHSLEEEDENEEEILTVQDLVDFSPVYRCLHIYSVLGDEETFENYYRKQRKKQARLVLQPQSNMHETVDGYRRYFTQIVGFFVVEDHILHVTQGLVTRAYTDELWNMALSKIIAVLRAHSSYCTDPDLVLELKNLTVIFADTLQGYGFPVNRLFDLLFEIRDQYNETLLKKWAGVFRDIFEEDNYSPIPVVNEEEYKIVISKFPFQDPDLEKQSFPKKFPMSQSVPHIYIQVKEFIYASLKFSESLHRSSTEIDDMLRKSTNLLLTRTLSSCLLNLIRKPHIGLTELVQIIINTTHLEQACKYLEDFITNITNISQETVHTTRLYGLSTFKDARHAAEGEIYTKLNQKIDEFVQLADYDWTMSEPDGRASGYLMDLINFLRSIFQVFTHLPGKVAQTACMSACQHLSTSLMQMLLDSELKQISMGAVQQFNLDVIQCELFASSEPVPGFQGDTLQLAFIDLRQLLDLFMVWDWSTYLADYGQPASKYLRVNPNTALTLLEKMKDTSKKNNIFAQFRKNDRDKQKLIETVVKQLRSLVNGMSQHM
UniProt O00471: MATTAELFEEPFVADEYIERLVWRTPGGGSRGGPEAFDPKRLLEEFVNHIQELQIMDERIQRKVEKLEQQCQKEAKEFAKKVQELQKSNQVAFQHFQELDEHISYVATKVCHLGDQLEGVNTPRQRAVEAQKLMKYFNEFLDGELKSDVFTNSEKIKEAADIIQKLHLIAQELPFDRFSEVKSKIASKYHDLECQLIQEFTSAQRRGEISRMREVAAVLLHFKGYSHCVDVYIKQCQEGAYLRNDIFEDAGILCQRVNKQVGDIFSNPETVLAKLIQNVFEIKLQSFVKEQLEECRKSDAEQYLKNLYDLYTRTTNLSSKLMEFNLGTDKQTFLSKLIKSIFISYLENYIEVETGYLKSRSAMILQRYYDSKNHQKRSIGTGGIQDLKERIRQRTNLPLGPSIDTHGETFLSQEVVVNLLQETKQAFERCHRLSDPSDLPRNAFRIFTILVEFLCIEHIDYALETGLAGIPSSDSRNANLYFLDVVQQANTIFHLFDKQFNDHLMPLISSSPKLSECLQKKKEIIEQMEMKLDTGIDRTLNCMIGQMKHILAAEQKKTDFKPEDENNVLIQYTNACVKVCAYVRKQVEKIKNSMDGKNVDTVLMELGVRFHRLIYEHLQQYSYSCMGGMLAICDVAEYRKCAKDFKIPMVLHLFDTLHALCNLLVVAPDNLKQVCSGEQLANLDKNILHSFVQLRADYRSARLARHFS

Legend:
GFP-Rab33b wt = GFP-Rab33b wt (UniProt Q9H082); assay: co-IP; U2OS cells transiently transfected with GFP fusions, lysed (10 mM Tris-HCl pH 7.5, 150 mM NaCl, 0.5 mM EDTA, 0.1% NP-40); lysates 1 h at 4°C with GFP-Trap magnetic beads or non-coupled beads as control; Western blot
GFP-Rab33b Q92L = GFP-Rab33b Q92L (UniProt Q9H082); assay: as above
His-Rab33b Q92L = His-Rab33b Q92L (UniProt Q9H082); assay: pull-down; 12 μg purified His-tagged Rab bound to His-Dynabeads, loaded with 0.1 mM GTPγS to activate, incubated with 200 μL precleared U2OS cell lysate 30 min at 4°C; ten washes; eluted with 300 mM imidazole; Western blot; only the target purified
His-Rab33b wt = His-Rab33b wt (UniProt Q9H082); assay: as above
His-Rab33b T47N = His-Rab33b T47N (UniProt Q9H082); assay: as above
GFP-Rab33b T47N = GFP-Rab33b T47N (UniProt Q9H082); assay: co-IP; U2OS cells transiently transfected with GFP fusions, lysed (10 mM Tris-HCl pH 7.5, 150 mM NaCl, 0.5 mM EDTA, 0.1% NP-40); lysates 1 h at 4°C with GFP-Trap magnetic beads or non-coupled beads as control; Western blot
His-Rab9 Q66L = molecular target: T1, His-Rab9 Q66L (UniProt P51151); assay: condition: 12 μg of purified His-tagged protein on beads; pull-down; 12 μg purified His-tagged Rab bound to His-Dynabeads, loaded with 0.1 mM GTPγS to activate, incubated with 200 μL precleared U2OS cell lysate 30 min at 4°C; ten washes; eluted with 300 mM imidazole; Western blot; only the target purified
T1 sequence: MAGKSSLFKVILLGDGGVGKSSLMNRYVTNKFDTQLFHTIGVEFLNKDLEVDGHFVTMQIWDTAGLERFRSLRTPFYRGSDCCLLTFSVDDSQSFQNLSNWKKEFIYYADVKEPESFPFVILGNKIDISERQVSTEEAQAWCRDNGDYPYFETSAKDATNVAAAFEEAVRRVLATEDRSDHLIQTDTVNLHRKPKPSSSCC

His-Rab9 wt = molecular target: T2, His-Rab9 wt (UniProt P51151); assay: as above
T2 sequence: T1 sequence with L66Q

Substance | binding (GFP-Rab33b wt) | binding (GFP-Rab33b Q92L) | binding (His-Rab33b Q92L) | binding (His-Rab33b wt) | binding (His-Rab33b T47N) | binding (GFP-Rab33b T47N) | binding (His-Rab9 Q66L) | binding (His-Rab9 wt)
Exo70 (endogenous, U2OS cells) (from UniProt Q9UPT5 1-735) | binds | binds | – | – | – | – | – | –
Exoc6 (endogenous, U2OS cells) (from UniProt Q8TAG9 1-804) | binds | binds | binds | binds | binds weakly | binds | no binding | no binding
Sec10 (endogenous, U2OS cells) (from UniProt O00471 1-708) | binds | binds | – | – | – | – | – | –
